The values below come from the supplement of paper PMC8183993.

Several values for one entry are separate records, joined by “and”; a condition that tells them apart may be missing. Equal entries are not always repeated. Structures can show the parent of a compound that is named as a salt. ± gives the standard deviation of the averaged measurements. Whole data set: some 3,200 compounds, median “nuclei count (viability) relative to DMSO” near 99, cut for the lowest 2% near 16. This is one part of the list.

The subject of this assay is U2OS. The assay can be described thus: nuclei count (viability) relative to DMSO (% of DMSO); higher = more viable cells. Particulars: 10 µM; 24 h. As to the method:
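Primary image-based screen in U2OS cells: compounds at 10 uM for 24 h, then a 1 h o-propargyl-puromycin (OPP) pulse, click labelling, and high-throughput microscopy. Mean cytoplasmic OPP intensity and nuclei count were normalised to DMSO wells within each plate (DMSO = 100) and averaged over triplicate plates.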
`Oc1ccc(-c2nc3cc(O)cc(Br)c3o2)cc1` had a nuclei count of 96.3. The same measure for `CCCCOc1cc(C(=O)NCCN(CC)CC)c2ccccc2n1` [Dibucaine]: 101; for `C[C@H](CC[C@@H]1OC1(C)C)[C@H]1CC[C@H]2[C@@H]3CC=C4C[C@@H](O)CC[C@]4(C)[C@H]3CC[C@]12C` [24(S),25-Epoxycholesterol]: 107; for `COc1ccc2cc1Oc1ccc(cc1)C[C@H]1c3cc(c(OC)cc3CCN1C)Oc1c(OC)c(OC)cc3c1[C@H](C2)N(C)CC3` [Tetrandrine (Fanchinine)]: 101. Under `COc1ccc2cc1Oc1ccc(cc1)C[C@H]1c3cc(c(OC)cc3CCN1C)Oc1c(OC)c(OC)cc3c1[C@H](C2)N(C)CC3` [Tetrandrine] stands 96.9. For the compound `Cc1c[nH]c(=O)n(CCCN2CCN(c3ccccc3OCC(F)(F)F)CC2)c1=O`, the nuclei count was determined as 105. In turn, `Nc1ncnc2c1c(-c1cnc3[nH]ccc3c1)nn2C1CCCC1` registered a nuclei count of 40.1. As to `C[C@]12CC[C@@H]3c4ccc(O)cc4CC[C@H]3[C@@H]1CCC2=O` [Estrone], the nuclei count was found to be 96.6 ± 4.3. Turning to `COC(=O)c1c(-c2cc(OC)c(OC)c(OC)c2)c2ccnc(OCc3ncccn3)c2c(=O)n1Cc1ccnc(C)c1` [T 0156 hydrochloride], the nuclei count worked out at 107. In turn, `c1ccc(N2CCN(Cc3nc4ccccc4[nH]3)CC2)nc1` [ABT 724 trihydrochloride] displayed a nuclei count of 99.2. With `CN(C)[C@@H]1C(O)=C(C(N)=O)C(=O)[C@@]2(O)C(O)=C3C(=O)c4c(O)ccc(Cl)c4[C@@](C)(O)[C@H]3C[C@@H]12` [Chlortetracycline hydrochloride], the nuclei count stood at 93.4. Regarding `CC(C)[C@H](N)C(=O)N[C@H](C(=O)N[C@H](C(=O)O)C(C)C)C(C)C`, the nuclei count turned out to be 90.3. `CC(=O)N(CC(C)C(=O)O)c1c(I)cc(I)c(N)c1I` (stereo not drawn) [Iocetamic acid] showed a nuclei count of 82.5.

`CCCCCCCCc1ccc(CCC(N)(CO)CO)cc1` [Fingolimod (FTY720)] showed a nuclei count of 18.9 ± 0.71. The compound `CCCCC(C)(O)C/C=C/[C@H]1[C@H](O)CC(=O)[C@@H]1CCCCCCC(=O)OC` (mixture of isomers) [Misoprostol] yielded a nuclei count of 103. Under `CNCCC(Oc1ccccc1OC)c1ccccc1` (stereo not drawn) [Nisoxetine hydrochloride] stands 93.6 ± 5.6; under `COc1ccccc1O` [Guaiacol], 101; under `O=NN(CCCl)C(=O)NC1CCCCC1` [Lomustine (CeeNU)], 109. Regarding `COc1cc(CCC(C)=O)ccc1O` [Vanillylacetone], the nuclei count stood at 88.4. Take `O=C(O)CCC(=O)Nc1ccc(S(=O)(=O)Nc2nccs2)cc1` [Succinylsulfathiazole]: the nuclei count was 111.

For `COc1cnc(NS(=O)(=O)c2ccc(N)cc2)nc1` [Sulfameter], the nuclei count worked out at 103.

Consider `Cn1cnnc1Sc1c([N+](=O)[O-])ncn1C`, for which the nuclei count is 108.

Compound `Cc1cccc(CN2CCN(C(c3ccccc3)c3ccc(Cl)cc3)CC2)c1` (stereo not drawn) [Meclozine dihydrochloride] came in with a nuclei count of 103. The same measure for `CC(C)c1cc(C(=O)N2Cc3ccc(CN4CCN(C)CC4)cc3C2)c(O)cc1O`: 55.3. Compound `CCOC(=O)C1=C[C@]2(CC)CCCN3CCc4c(n1c1ccccc41)[C@@H]32` [Vinpocetine (Cavinton)] returned a nuclei count of 102. As to `CCOC(=O)C1=C[C@]2(CC)CCCN3CCc4c(n1c1ccccc41)[C@@H]32` [Vinpocetine], the nuclei count is 97.5 ± 9.1. For the compound `CS(=O)(=O)CCNCc1nc(-c2ccc3ncnc(Nc4ccc(OCc5cccc(F)c5)c(Cl)c4)c3c2)cs1`, the nuclei count turned out to be 95.3. The compound `COc1ccc(-c2cc(=O)c3c(O)cc(O[C@@H]4O[C@H](CO[C@@H]5O[C@@H](C)[C@H](O)[C@@H](O)[C@H]5O)[C@@H](O)[C@H](O)[C@H]4O)cc3o2)cc1O` [Diosmin] registered a nuclei count of 101 ± 1.4. Regarding `COc1cc(Nc2ncc(F)c(Nc3ccc4c(n3)N(COP(=O)(O)O)C(=O)C(C)(C)O4)n2)cc(OC)c1OC`, the nuclei count was 69.4.

Compound `COc1cc(Nc2ncc(F)c(Nc3ccc4c(n3)N(COP(=O)(O)O)C(=O)C(C)(C)O4)n2)cc(OC)c1OC` [R788 (Fostamatinib)] registered a nuclei count of 26.9.

`Cc1nnc(C(C)C)n1C1C[C@H]2CC[C@@H](C1)N2CC[C@H](NC(=O)C1CCC(F)(F)CC1)c1ccccc1` (stereo in doubt) [Maraviroc]: the nuclei count came out at 97.7. Under `CCCCCCCN(CC)CCCC(O)c1ccc(NS(C)(=O)=O)cc1` (stereo not drawn) [Ibutilide fumarate] stands 106.

`Cn1c(=O)cc(N2CCC[C@@H](N)C2)n(Cc2ccccc2C#N)c1=O` [Alogliptin (SYR-322)]: the nuclei count was found to be 107. Under `Cn1cc(-c2ccc3nnc(C(F)(F)c4ccc5ncccc5c4)n3n2)cn1` stands 108. Compound `c1ccc2[nH]c(-c3cscn3)nc2c1` [Tiabendazole] displayed a nuclei count of 108. Under `CN1[C@@H](CC(=O)c2ccccc2)CCC[C@H]1C[C@H](O)c1ccccc1` [Lobeline hydrochloride] stands 71.4; under `CCC(CC)CC1(C(=O)Nc2ccccc2SC(=O)C(C)C)CCCCC1` [Dalcetrapib (JTT-705)], 84.5. `COC1=C2C[C@@H](C)C[C@H](OC)[C@H](O)[C@@H](C)/C=C(\C)[C@H](OC(N)=O)[C@@H](OC)/C=C\C=C(/C)C(=O)NC(=CC1=O)C2=O` [Geldanamycin] displayed a nuclei count of 54 ± 5.5. Turning to `CCOC(=O)c1ncc2[nH]c3cccc(OC(C)C)c3c2c1C`, the nuclei count came to 95.3.

In the case of `CN1CC2c3ccccc3Oc3ccc(Cl)cc3C2C1` (stereo not drawn) [Asenapine], the nuclei count was found to be 105. Take `CN1CC2c3ccccc3Oc3ccc(Cl)cc3C2C1` (stereo not drawn) [Asenapine maleate]: the nuclei count amounted to 104 ± 13. The same measure for `CNC(=O)Nc1ccc(-c2nc(N3CC4CCC(C3)O4)c3cnn(C4CCC5(CC4)OCCO5)c3n2)cc1`: 88.1; for `CC1CS(=O)(=O)CCN1/N=C/c1ccc([N+](=O)[O-])o1` (stereo not drawn) [Nifurtimox]: 103; for `CNC1(C)C2CCC(C2)C1(C)C` (stereo not drawn) [Mecamylamine hydrochloride]: 115. The same measure for `Cc1c(Cn2c(C)nc3c(C(=O)O)cc(N4CCOCC4)cc32)cccc1C(F)(F)F`: 101 ± 1.8; for `CCCc1nc(C(C)(C)O)c(C(=O)OCc2oc(=O)oc2C)n1Cc1ccc(-c2ccccc2-c2nnn[nH]2)cc1` [Olmesartan medoxomil (Benicar)]: 101; for `Cn1c(=O)c2c(ncn2CC(O)CO)n(C)c1=O` (stereo not drawn) [Diprophylline]: 108. In the case of `NC(=O)c1cccnc1` [Nicotinamide], the nuclei count is 107 ± 2.6. `CCC(C)(CN(C)C)OC(=O)c1ccccc1` (stereo not drawn) [Amyleine hydrochloride]: the nuclei count amounted to 107. For the compound `CC(=C(CCO)SSCC1CCCO1)N(C=O)Cc1cnc(C)nc1N` (stereo in doubt) [Fursultiamine Hydrochloride], the nuclei count stood at 102. Under `C=C(NC(=O)C(=C)NC(=O)c1csc(C2=N[C@@H]3c4csc(n4)[C@H]4NC(=O)c5csc(n5)[C@H]([C@](C)(O)[C@@H](C)O)NC(=O)[C@H]5CSC(=N5)/C(=C/C)NC(=O)[C@H]([C@@H](C)O)NC(=O)c5csc(n5)[C@]3(CC2)NC(=O)[C@H](C)NC(=O)C(=C)NC(=O)[C@H](C)NC(=O)[C@H]([C@@H](C)CC)N[C@@H]2C=Cc3c([C@H](C)O)cc(nc3[C@H]2O)C(=O)O[C@@H]4C)n1)C(N)=O` [Thiostrepton] stands 16.2; under `CN(CCOc1ccc(-c2ccc3c(c2)OCO3)cc1C(C)(C)C)CC(=O)O`, 98; under `CC(C)(Oc1ccc(C2CC2(Cl)Cl)cc1)C(=O)O` (stereo not drawn) [Ciprofibrate], 98.5. `N[C@@H](CSS(=O)(=O)O)C(=O)O` [S-Sulfo-L-cysteine sodium salt] registered a nuclei count of 103. Under `Nc1nc(Nc2ccc(S(N)(=O)=O)cc2)nn1C(=O)c1c(F)cccc1F` stands 40.5; under `CC(C)c1onc(-c2c(Cl)cccc2Cl)c1COc1ccc(/C=C/c2cccc(C(=O)O)c2)c(Cl)c1`, 109 and 96; under `C[C@@]1(O)[C@H](O)[C@@H](CO)O[C@H]1n1cnc2c(NC3CCCC3)nc(Cl)nc21`, 96. The same measure for `C=CCN1CCCC1CNC(=O)c1cc2nn[nH]c2cc1OC` (stereo not drawn) [Alizapride HCl]: 106. `NC(=O)[C@@H](CCC(F)(F)F)N(Cc1ccc(-c2ncon2)cc1F)S(=O)(=O)c1ccc(Cl)cc1`: the nuclei count is 99. On to `COc1ccc(CNCc2cccc3ccccc23)cc1`, for which the nuclei count is 95.9.

As to `Cc1[nH]c(/C=C2\C(=O)Nc3ccc(S(=O)(=O)Cc4c(Cl)cccc4Cl)cc32)c(C)c1C(=O)N1CCC[C@@H]1CN1CCCC1`, the nuclei count was 76 and 28. For `N#CC(=C(/N)Sc1ccccc1N)/C(C#N)=C(\N)Sc1ccccc1N`, the nuclei count is 96.4.

Take `CC1=C(C(=O)O)N2C(=O)[C@@H](NC(=O)[C@H](N)c3ccc(O)cc3)[C@H]2SC1` [Cefadroxil]: the nuclei count came out at 107.

For `CC(O)(C(=O)Nc1ccc(S(=O)(=O)c2ccccc2)cc1)C(F)(F)F` (stereo not drawn), the nuclei count was 128 and 105. `C1CCC2(CC1)CCNCC2` [4,4-Pentamethylenepiperidine hydrochloride]: the nuclei count was found to be 97.9.

In the case of `CC1=C(C(=O)OCCN(Cc2ccccc2)c2ccccc2)C(c2cccc([N+](=O)[O-])c2)C(P2(=O)OCC(C)(C)CO2)=C(C)N1` (stereo not drawn) [Efonidipine hydrochloride monoethanolate], the nuclei count amounted to 99.9. In turn, `CC(CCc1ccc(O)cc1)NCCc1ccc(O)c(O)c1` (stereo not drawn) [Dobutamine hydrochloride] yielded a nuclei count of 96.1 ± 6.

For `CCCNS(=O)(=O)Nc1ncnc(OCCOc2ncc(Br)cn2)c1-c1ccc(Br)cc1` [Macitentan], the nuclei count came out at 104. For the compound `CC1CCN(CCCC(=O)c2ccc(F)cc2)CC1` [Melperone hydrochloride], the nuclei count was 98.9. Compound `COc1cc2ncnc(Nc3ccc(Oc4ccccc4)cc3)c2cc1OC` registered a nuclei count of 84.3. Regarding `Nc1ccc(S(N)(=O)=O)cc1` [Sulfanilamide], the nuclei count amounted to 101. In the case of `CCN1CCC[C@H]1CNC(=O)c1cc(S(N)(=O)=O)ccc1OC` [Levosulpiride (Levogastrol)], the nuclei count came out at 102. `CCN1CCC[C@H]1CNC(=O)c1cc(S(N)(=O)=O)ccc1OC` [(S)-(-)-Sulpiride]: the nuclei count came out at 104.
